PubChem BioAssay (NCI)
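These data come from cells grown in 96-well plates and exposed to compound for 48 hours at five concentrations. GI50: concentration for 50% inhibition of growth.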 The source holds more than one record for some entries. This is not the full list of results. There may be further records. For some assays here: The tests behind the records often covered other concentration ranges, which the source does not state; some values may only mark the edge of a range. For some assays here: Values that stand side by side are repeated measurements across runs, samples, wells, individuals or studies. A tag in brackets gives the origin of a value. The letters are not those of the source and start again with each entry.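 TGI: concentration producing complete growth inhibition.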

Key:
Assay in all cases: NCI tumour cell line growth inhibition, 48 h
[1] = tested on: HL-60(TB) leukemia
[2] = tested on: A549 NSCLC
[3] = tested on: LOX IMVI melanoma
[4] = tested on: EKVX NSCLC
[5] = tested on: HCT-116 colon
[6] = tested on: KM12 colon
[7] = tested on: HOP-92 NSCLC
[8] = tested on: OVCAR-5 ovarian
[9] = tested on: COLO 205 colon
[10] = tested on: NCI-H226 lung
[11] = tested on: CAKI-1 renal
[12] = tested on: TK-10 renal
[13] = tested on: SK-MEL-2 melanoma
[14] = tested on: HCC-2998 colon
[15] = tested on: UACC-62 melanoma

## CC1OC(=O)C(C(C)C)NC(=O)C(C(C)C)OC(=O)C(C(C)C)NC(=O)C(C)OC(=O)C(C(C)C)NC(=O)C(C(C)C)OC(=O)C(C(C)C)NC(=O)C(C)OC(=O)C(C(C)C)NC(=O)C(C(C)C)OC(=O)C(C(C)C)NC1=O (configuration not stated)
[1]
  TGI: < 0.1 nM and 25 nM
[2]
  GI50: < 0.1 nM [1 test] and 4.45 nM [mean of 4 tests]
[3]
  TGI: 0.161 nM and 667 nM
[4]
  TGI: < 0.1 nM and 694 nM
[5]
  GI50: < 0.1 nM [1 test] and 2.5 nM [mean of 3 tests]
[6]
  TGI: 158 nM and 4.09 µM
[7]
  TGI: < 0.1 nM and 3.44 nM
[8]
  GI50: < 0.1 nM [1 test] and 2.5 nM [mean of 4 tests]
  TGI: 202 nM [1 test] and 8.4 µM [mean of 4 tests]
[9]
  TGI: < 0.1 nM and 10.1 nM
[10]
  GI50: 0.107 nM [1 test] and 4.68 nM [mean of 3 tests]

## Cc1c2ccncc2c(C)c2c1[nH]c1ccc(Cl)cc12
[1]
  TGI: 6.43 µM and > 100 µM
[11]
  TGI: 20.3 µM [1 test] and 1.15 µM [mean of 4 tests]

## O=C(NOCCO)c1cc(CN2OCCCC2=O)c(F)c(F)c1Nc1ccc(I)cc1F
[12]
  GI50: 1.28 µM [sample A, mean of 2 tests] and 11 nM [sample B, mean of 2 tests]
[13]
  TGI: 2.24 µM [sample A, 1 test] and 112 nM [sample B, mean of 2 tests]
[14]
  TGI: 450 nM [sample A, mean of 2 tests] and > 10 µM [sample B, mean of 2 tests]
[15]
  TGI: 629 nM [sample A, mean of 2 tests] and 16.2 nM [sample B, 1 test]
